B1: PspF_([…]) F85C (domain or fragment)
chain: not shown
B2: PspF_([…]) F85H (domain or fragment)
chain: not shown
B3: PspF_([…]) F85I (domain or fragment)
chain: not shown
B4: PspF_([…]) F85L (domain or fragment)
chain: not shown
B5: PspF_([…]) F85Q (domain or fragment)
chain: not shown
B6: PspF_([…]) F85W (domain or fragment)
chain: not shown
B7: PspF_([…]) F85Y (domain or fragment)
chain: not shown

Assays:
[1] = target: the molecule itself; assay: SEC
[2] = target: σ^54G4L (Klebsiella pneumoniae, UniProt P06223, G4L); assay: native gel or EMSA
[3] = target: Klebsiella pneumoniae σ^54 (Klebsiella pneumoniae, UniProt P06223); assay: native gel or EMSA

Binder	stoichiometry N [1]	binding result [2]	binding result [3]
B1	8		
B2	8		
B3	8		
B4	8		
B5	8		
B6	8		
B7		binds	binds
